# The supplement of paper PMC10037445
# Several values for one entry are separate records, joined by “and”; a condition that tells them apart may be missing. Equal values may be shown once. In all, about 2,900 compounds were measured (“NF-kB SEAP reporter activity, fold change vs agonist alone”: median about 0.99, highest 2% from about 2.6 on). Some of the results follow.
# Tests used:
# [1] = system: RAW-Dual; experiment: NF-kB SEAP reporter activity, fold change vs agonist alone; cytotoxicity flag (confluency mask): not cytotoxic; higher = enhanced NF-kB activity
# In short: (§1)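 RAW-Dual macrophages (50,000 cells/well in DMEM, 384-well plates) received 50 nL of library stock by pin tool, then a PRR agonist 1 h later, and were kept at 37 °C, 5% CO2. After 20 hours, supernatant was read for IRF by QuantiLuc luminescence and for NF-κB by QuantiBlue absorbance at 620 nm. Reporter activity is fold change over agonist-alone wells. Cytotoxic wells had IncuCyte confluency below 70% of agonist controls in both mask sets.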
# [2] = system: RAW-Dual; experiment: NF-kB SEAP reporter activity, fold change vs agonist alone; higher = enhanced NF-kB activity; conditions: library stock concentration (final ~1000-fold dilution): 10 mM
# In short: as §1
# [3] = system: RAW-Dual; experiment: NF-kB SEAP reporter activity, fold change vs agonist alone; cytotoxicity flag (confluency mask): cytotoxic (confluency <70% of control); higher = enhanced NF-kB activity
# In short: as §1
# [4] = agonist: ODN 1826 (TLR9) 0.5 ug/mL
# [5] = agonist: Pam2CSK4 (TLR2/6) 0.1 ug/mL
# [6] = agonist: Pam3CSK4 (TLR2/1) 0.1 ug/mL
# [7] = cytotoxicity flag (confluency mask): not cytotoxic, agonist: Imiquimod (TLR7) […]
# [8] = cytotoxicity flag (confluency mask): not cytotoxic, agonist: MPLA (TLR4) […]
# [9] = cytotoxicity flag (confluency mask): cytotoxic (confluency <70% of control), agonist: Imiquimod (TLR7) […]
# [10] = cytotoxicity flag (confluency mask): cytotoxic (confluency <70% of control), agonist: MPLA (TLR4) […]
smiles,measurement,setting,value
Cc1ccc(NC(=O)c2ccc(CN3CCN(C)CC3)cc2)cc1Nc1nccc(-c2cccnc2)n1 (library stock concentration (final ~1000-fold dilution): 10 mM),NF-kB SEAP reporter activity,[1]; agonist: LPS (TLR4) 0.1 ug/mL,1.23
same,NF-kB SEAP reporter activity,[1]; [4],0.212
same,NF-kB SEAP reporter activity,[1]; [5],1.55
same,NF-kB SEAP reporter activity,[1]; [6],1.42
Cc1ccc(NC(=O)c2ccc(CN3CCN(C)CC3)cc2)cc1Nc1nccc(-c2cccnc2)n1,NF-kB SEAP reporter activity,[2]; [7],1.31
same,NF-kB SEAP reporter activity,[2]; [8],1.69
CN(C)CC/C=C1\c2ccccc2COc2ccccc21.Cl (library stock concentration (final ~1000-fold dilution): 10 mM),NF-kB SEAP reporter activity,[1]; agonist: LPS (TLR4) 0.1 ug/mL,1.31
same,NF-kB SEAP reporter activity,[1]; [4],0.893
same,NF-kB SEAP reporter activity,[1]; [5],0.954
same,NF-kB SEAP reporter activity,[1]; [6],1.1
CN(C)CC/C=C1\c2ccccc2COc2ccccc21.Cl,NF-kB SEAP reporter activity,[2]; [7],1.97
same,NF-kB SEAP reporter activity,[2]; [8],1.24
O=C(c1ccc(F)c(F)c1Nc1ccc(I)cc1F)N1CC(O)(C2CCCCN2)C1 (stereo not drawn) (library stock concentration (final ~1000-fold dilution): 10 mM),NF-kB SEAP reporter activity,[3]; agonist: LPS (TLR4) 0.1 ug/mL,0.248
same,NF-kB SEAP reporter activity,[3]; [4],0.184
same,NF-kB SEAP reporter activity,[3]; [5],0.0656
same,NF-kB SEAP reporter activity,[3]; [6],0.122
O=C(c1ccc(F)c(F)c1Nc1ccc(I)cc1F)N1CC(O)(C2CCCCN2)C1 (stereo not drawn),NF-kB SEAP reporter activity,[2]; [9],0.122
same,NF-kB SEAP reporter activity,[2]; [10],0.246
CCc1cc2c(cc1N1CCC(N3CCOCC3)CC1)C(C)(C)c1[nH]c3cc(C#N)ccc3c1C2=O (library stock concentration (final ~1000-fold dilution): 10 mM),NF-kB SEAP reporter activity,[1]; agonist: LPS (TLR4) 0.1 ug/mL,1.36
same,NF-kB SEAP reporter activity,[1]; [4],1.06
same,NF-kB SEAP reporter activity,[1]; [5],0.75
same,NF-kB SEAP reporter activity,[1]; [6],1.44
CCc1cc2c(cc1N1CCC(N3CCOCC3)CC1)C(C)(C)c1[nH]c3cc(C#N)ccc3c1C2=O,NF-kB SEAP reporter activity,[2]; [7],1.14
same,NF-kB SEAP reporter activity,[2]; [8],1.07
COc1ccc(NS(=O)(=O)c2sc3ccc(Cl)cc3c2C)cc1N1CCNCC1 (library stock concentration (final ~1000-fold dilution): 10 mM),NF-kB SEAP reporter activity,[3]; agonist: LPS (TLR4) 0.1 ug/mL,0.967
same,NF-kB SEAP reporter activity,[3]; [4],0.263
same,NF-kB SEAP reporter activity,[3]; [5],0.622
same,NF-kB SEAP reporter activity,[3]; [6],0.576
COc1ccc(NS(=O)(=O)c2sc3ccc(Cl)cc3c2C)cc1N1CCNCC1,NF-kB SEAP reporter activity,[2]; [9],1.64
same,NF-kB SEAP reporter activity,[2]; [10],0.735
COc1ccc2c(c1O)-c1c(O)c(OC)cc3c1C(C2)[N+](C)(C)CC3 (stereo not drawn) (library stock concentration (final ~1000-fold dilution): 10 mM),NF-kB SEAP reporter activity,[1]; agonist: LPS (TLR4) 0.1 ug/mL,1.1 and 1.18
same,NF-kB SEAP reporter activity,[1]; [4],0.935 and 1.11
same,NF-kB SEAP reporter activity,[1]; [5],1.01 and 1.08
same,NF-kB SEAP reporter activity,[1]; [6],0.967 and 1.08
CC1CNc2c(cccc2S(=O)(=O)NC(CCCNC(=N)N)C(=O)N2CCC(C)CC2C(=O)O)C1 (stereo not drawn),NF-kB SEAP reporter activity,[2]; [7],0.988
same,NF-kB SEAP reporter activity,[2]; [8],0.953
CC1CNc2c(cccc2S(=O)(=O)NC(CCCNC(=N)N)C(=O)N2CCC(C)CC2C(=O)O)C1 (stereo not drawn) (library stock concentration (final ~1000-fold dilution): 10 mM),NF-kB SEAP reporter activity,[1]; agonist: LPS (TLR4) 0.1 ug/mL,0.837
same,NF-kB SEAP reporter activity,[1]; [4],1.01
same,NF-kB SEAP reporter activity,[1]; [5],0.87
same,NF-kB SEAP reporter activity,[1]; [6],1.05
CC12C=CC(=O)NC1CCC1C2CCC2(C)C(C(=O)Nc3cc(C(F)(F)F)ccc3C(F)(F)F)CCC12 (stereo not drawn) (library stock concentration (final ~1000-fold dilution): 10 mM),NF-kB SEAP reporter activity,[1]; agonist: LPS (TLR4) 0.1 ug/mL,0.556
same,NF-kB SEAP reporter activity,[1]; [4],0.406
same,NF-kB SEAP reporter activity,[1]; [5],0.441
same,NF-kB SEAP reporter activity,[1]; [6],0.399
CC12C=CC(=O)NC1CCC1C2CCC2(C)C(C(=O)Nc3cc(C(F)(F)F)ccc3C(F)(F)F)CCC12 (stereo not drawn),NF-kB SEAP reporter activity,[2]; [7],0.289
same,NF-kB SEAP reporter activity,[2]; [8],0.473
Cl.Cl.OCCN1CCN(CCCN2c3ccccc3Sc3ccc(C(F)(F)F)cc32)CC1,NF-kB SEAP reporter activity,[2]; [9],1.91
same,NF-kB SEAP reporter activity,[2]; [10],1.39
Cl.Cl.OCCN1CCN(CCCN2c3ccccc3Sc3ccc(C(F)(F)F)cc32)CC1 (library stock concentration (final ~1000-fold dilution): 10 mM),NF-kB SEAP reporter activity,[3]; agonist: LPS (TLR4) 0.1 ug/mL,0.742
same,NF-kB SEAP reporter activity,[3]; [4],0.707
same,NF-kB SEAP reporter activity,[3]; [5],0.568
same,NF-kB SEAP reporter activity,[3]; [6],0.662
CCCc1nn(C)c2c(=O)[nH]c(-c3cc(S(=O)(=O)N4CCN(C)CC4)ccc3OCC)nc12.O=C(O)CC(O)(CC(=O)O)C(=O)O (library stock concentration (final ~1000-fold dilution): 10 mM),NF-kB SEAP reporter activity,[1]; agonist: LPS (TLR4) 0.1 ug/mL,1.33
same,NF-kB SEAP reporter activity,[1]; [4],1.28
same,NF-kB SEAP reporter activity,[1]; [5],1.03
same,NF-kB SEAP reporter activity,[1]; [6],1.2
CCCc1nn(C)c2c(=O)[nH]c(-c3cc(S(=O)(=O)N4CCN(C)CC4)ccc3OCC)nc12.O=C(O)CC(O)(CC(=O)O)C(=O)O,NF-kB SEAP reporter activity,[2]; [7],1.19
same,NF-kB SEAP reporter activity,[2]; [8],0.852
CC(C)NCC(O)COc1ccc(CCOCC2CC2)cc1 (stereo not drawn) (library stock concentration (final ~1000-fold dilution): 10 mM),NF-kB SEAP reporter activity,[1]; agonist: LPS (TLR4) 0.1 ug/mL,0.893 and 0.877
same,NF-kB SEAP reporter activity,[1]; [4],0.774 and 0.772
same,NF-kB SEAP reporter activity,[1]; [5],0.942 and 0.939
same,NF-kB SEAP reporter activity,[1]; [6],1.28 and 0.997
Cc1c(C(=O)NN2CCCCC2)nn(-c2ccc(Cl)cc2Cl)c1-c1ccc(I)cc1 (library stock concentration (final ~1000-fold dilution): 10 mM),NF-kB SEAP reporter activity,[1]; agonist: LPS (TLR4) 0.1 ug/mL,1.36
same,NF-kB SEAP reporter activity,[1]; [4],0.337
same,NF-kB SEAP reporter activity,[1]; [5],0.793
same,NF-kB SEAP reporter activity,[1]; [6],0.542
Cc1c(C(=O)NN2CCCCC2)nn(-c2ccc(Cl)cc2Cl)c1-c1ccc(I)cc1,NF-kB SEAP reporter activity,[2]; [7],0.672
same,NF-kB SEAP reporter activity,[2]; [8],1.01
CCc1nc(N)nc(N)c1-c1ccc(Cl)cc1 (library stock concentration (final ~1000-fold dilution): 10 mM),NF-kB SEAP reporter activity,[1]; agonist: LPS (TLR4) 0.1 ug/mL,1.51
same,NF-kB SEAP reporter activity,[1]; [4],1.29
same,NF-kB SEAP reporter activity,[1]; [5],1.11
same,NF-kB SEAP reporter activity,[1]; [6],1.04
CCc1nc(N)nc(N)c1-c1ccc(Cl)cc1,NF-kB SEAP reporter activity,[2]; [7],0.734
same,NF-kB SEAP reporter activity,[2]; [8],1.23
C=C1C(=O)OC2C1CCC(=C)C1CCC(=C)C12 (stereo not drawn) (library stock concentration (final ~1000-fold dilution): 10 mM),NF-kB SEAP reporter activity,[1]; agonist: LPS (TLR4) 0.1 ug/mL,0.458
same,NF-kB SEAP reporter activity,[1]; [4],0.224
same,NF-kB SEAP reporter activity,[1]; [5],0.0695
same,NF-kB SEAP reporter activity,[1]; [6],0.13
same,NF-kB SEAP reporter activity,[3]; agonist: LPS (TLR4) 0.1 ug/mL,0.209
same,NF-kB SEAP reporter activity,[3]; [4],0.244
same,NF-kB SEAP reporter activity,[3]; [5],0.101
same,NF-kB SEAP reporter activity,[3]; [6],0.183
C=C1C(=O)OC2C1CCC(=C)C1CCC(=C)C12 (stereo not drawn),NF-kB SEAP reporter activity,[2]; [9],0.468
same,NF-kB SEAP reporter activity,[2]; [10],0.272
same,NF-kB SEAP reporter activity,[2]; [7],0.25
same,NF-kB SEAP reporter activity,[2]; [8],0.219
O=c1cc(CO)occ1O (library stock concentration (final ~1000-fold dilution): 10 mM),NF-kB SEAP reporter activity,[1]; agonist: LPS (TLR4) 0.1 ug/mL,1.08
same,NF-kB SEAP reporter activity,[1]; [4],0.927
same,NF-kB SEAP reporter activity,[1]; [5],1.08
same,NF-kB SEAP reporter activity,[1]; [6],1.47
O=c1cc(CO)occ1O,NF-kB SEAP reporter activity,[2]; [8],1.03
Cc1cccc(-c2[nH]c(C(C)(C)C)nc2-c2ccc3c(c2)OCO3)n1,NF-kB SEAP reporter activity,[2]; [7],1.04
same,NF-kB SEAP reporter activity,[2]; [8],1.49
Cc1cccc(-c2[nH]c(C(C)(C)C)nc2-c2ccc3c(c2)OCO3)n1 (library stock concentration (final ~1000-fold dilution): 10 mM),NF-kB SEAP reporter activity,[1]; agonist: LPS (TLR4) 0.1 ug/mL,1.76
same,NF-kB SEAP reporter activity,[1]; [4],1.05
same,NF-kB SEAP reporter activity,[1]; [5],0.839
same,NF-kB SEAP reporter activity,[1]; [6],1.11
CCn1c(C(=O)N(C2CC2)C2CC2)cc2c3c(ncn3C)c(Nc3cc(C)n(C)n3)nc21,NF-kB SEAP reporter activity,[2]; [7],1.02
same,NF-kB SEAP reporter activity,[2]; [8],1.2
CCn1c(C(=O)N(C2CC2)C2CC2)cc2c3c(ncn3C)c(Nc3cc(C)n(C)n3)nc21 (library stock concentration (final ~1000-fold dilution): 10 mM),NF-kB SEAP reporter activity,[1]; agonist: LPS (TLR4) 0.1 ug/mL,1.99
same,NF-kB SEAP reporter activity,[1]; [4],1.13
same,NF-kB SEAP reporter activity,[1]; [5],0.888
same,NF-kB SEAP reporter activity,[1]; [6],0.841
